Source: PubChem BioAssay AID686979 (National Center for Advancing Translational Sciences (NCATS), 2013)
Out of some 420,000 compounds screened, about 50,000 (12%) were called active. The inconclusive results got no clear call from the source; some entries with a clear call stand among them for comparison. Calls come from the whole dose curve; as a rule, active = well fitted inhibition curve with a large enough effect; inconclusive = small, poorly fitted or top-dose-only effect; inactive = flat fitted curve, though single readings scatter. No potency is given beside an inconclusive call; the fits are too rough.
% is set by controls: 0 for no effect and ±100 for the full control effect; potency is the fitted concentration of half-maximal effect; tags give direction and shape of the fitted curve.

Test: qHTS for Inhibitors of human tyrosyl-DNA phosphodiesterase 1 (TDP1): qHTS in cells in presence of CPT; note: nearly all actives have a fitted effect of over 55% in size
Details: chicken DT40 Tdp1-/-;hTDP1 cells + 20 nM CPT, ATP luminescence, 48 h; activity change, negative = growth inhibition: at 46.2 µM (top of the series)
Procedure, shortened: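 Chicken DT40 Tdp1-/- cells stably complemented with human TDP1 were seeded at 400 cells/well in medium containing 20 nM camptothecin, exposed to pin-transferred compounds, and grown at 37 °C for at least 48 hr. Viability was read as ATP luminescence.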
In the case of `COC(=O)c1cc2c([nH]c1=O)CC(c1ccccc1)CC2=O` (configuration not stated), the Potency is reported as inconclusive [inhibitor, partial curve].
With `COC(=O)c1ccc(C(=O)N(Cc2ccccc2)c2ccccc2)cc1` the Potency was inconclusive [inhibitor, single point].
For `CCCc1nc(SCC(=O)N2CCC(Cc3ccccc3)CC2)c2c(=O)n(C)c(=O)n(C)c2n1`, the Potency was active: 20.6 µM.
For `Cc1ccccc1N=C1SCCN1C(=O)CN1C(=O)NC2(CCCC2)C1=O`, the “activity change, negative = growth inhibition” value was inactive: -22.5%.
For `Cc1ccc(N(Cc2ccccc2F)S(C)(=O)=O)cc1C`, the activity change, negative = growth inhibition was inconclusive: -36.3% [inhibitor].
For `COc1ccc(OC)c(NC(=O)CSC2=NN3CCCC(=O)N=C3S2)c1`, the Potency was inconclusive [inhibitor, partial curve, poor fit].
For `Cc1cc(C)cc(NC(=O)CSc2nc3ccccc3nc2N2CCCC2)c1`, the Potency was inconclusive [inhibitor, single point].
In the case of `O=C(COc1ccc(Cl)cc1)N(Cc1ccc(F)cc1)C1CCS(=O)(=O)C1` (configuration not stated), the “activity change, negative = growth inhibition” value is reported as inactive: -26.4%.
In the case of `CC(NC(=O)C(=O)N1CCOCC1)C(c1cccs1)N1CCN(c2ccccc2)CC1` (configuration not stated), the “activity change, negative = growth inhibition” value is reported as inactive: -13%.
For `CCCCn1c(N2CCC(Cc3ccccc3)CC2)nc2c1c(=O)[nH]c(=O)n2C`, the Potency was active: 23.1 µM.
For `CCCn1cc(CN2CCC(C(=O)Nc3cccc(-c4cscn4)c3)CC2)c(C)n1`, the Potency was inconclusive [inhibitor, single point].
For `Cc1ncc(CO)c(CNc2ccc(-c3nc4ccccc4[nH]3)cc2)c1O`, the “activity change, negative = growth inhibition” value was inactive: -10.3%.
With `Cc1nc(-c2ccc(S(=O)(=O)N3CCN(Cc4ccccc4)CC3)s2)cs1` the Potency was inconclusive [inhibitor, single point].
In the case of `CC(C)c1cc(-c2nc(-c3ccc(Br)cc3)no2)n[nH]1`, the Potency is reported as inconclusive [inhibitor, single point].
In the case of `C=C1C(=O)OC2CC1C(O)CC(C)=CCCC(C)=CC(O)CC2C` (configuration not stated), the Potency is reported as active: 2.91 µM.
With `COc1ccc(CCNC(=O)[C@@H](NC(=O)N2CC(=O)Nc3ccccc32)C(C)C)cc1OC` the “activity change, negative = growth inhibition” value was inactive: 1.03%.
For `O=C(COc1ccc(-c2nnco2)cc1)NC1CCCc2ccccc21` (configuration not stated), the Potency was inconclusive [inhibitor, single point].
For `C/C(=N\NC(=O)CCC(=O)Nc1ccc(C)c(C)c1)C1CC1`, the “activity change, negative = growth inhibition” value was inactive: 11.7%.
In the case of `O=C(Cn1c(CO)nc2ccccc21)NCc1ccc2c(c1)OCO2`, the “activity change, negative = growth inhibition” value is reported as inactive: -8.65%.
In the case of `CCc1ccc(CN(C)C(=O)CCc2nnc(-c3ccc(-c4ccccc4)cc3)o2)nc1`, the Potency is reported as active: 18.4 µM.
With `CCCOC(=O)c1cc2ccccc2oc1=O` the “activity change, negative = growth inhibition” value was inactive: -2.05%.
For `O=C(c1ccc(Cl)cc1)N1N=C(c2ccccn2)CC1(O)C(F)(F)F` (configuration not stated), the Potency was active: 25.9 µM.
For `CCC(C(=O)N1CCN(S(=O)(=O)c2ccc(F)cc2)CC1)c1ccccc1` (configuration not stated), the Potency was inconclusive [inhibitor, single point].
With `Cc1cc2c(n1-c1ccc(C(=O)NCCc3ccccc3)cc1)CCC(C)C2` (configuration not stated) the Potency was active: 18.4 µM.
In the case of `Cc1ccn2c(NCc3ccccc3)c(-c3cccs3)nc2c1`, the Potency is reported as active: 16.4 µM.
With `Cc1cccc2sc(NNC(=O)c3ccc(S(=O)(=O)N4CCc5ccccc5C4)cc3)nc12` the Potency was active: 2.59 µM.
In the case of `O=C(CN1C(=O)NC2(CCc3ccccc32)C1=O)c1ccc(Br)cc1` (configuration not stated), the Potency is reported as inconclusive [inhibitor, single point].
In the case of `CCSc1cc(N2CC(C)OC(C)C2)nc(-c2ccccc2Cl)n1` (configuration not stated), the Potency is reported as inconclusive [inhibitor, single point].
With `CSc1ncccc1C(=O)OCC(=O)N(C)Cc1ccc(C)cc1` the Potency was inconclusive [inhibitor, single point].
For `CCN1CCN(c2ncc3c(n2)CCN(Cc2ccc(OC)c(OC)c2)C3)CC1`, the “activity change, negative = growth inhibition” value was inactive: -7.97%.
With `CCOC(=O)Cc1csc(NC(=O)c2ccc(Cl)nc2)n1` the Potency was inconclusive [inhibitor, single point].
With `Cc1ccc(C2CC(=O)Nc3cc4c(cc32)OCO4)o1` (configuration not stated) the Potency was inconclusive [inhibitor, partial curve, poor fit].
In the case of `COc1cccc(Cn2c(=O)c(CCc3ccccc3)nc3cnc(N4CCNCC4)nc32)c1`, the Potency is reported as inconclusive [inhibitor, single point].
In the case of `Cc1ccc(C(=O)Nc2nnc(S(=O)(=O)N3CCC(C)CC3)s2)cc1`, the “activity change, negative = growth inhibition” value is reported as inactive: -7.49%.
In the case of `CC(=O)Nc1ccc(NC(=O)COC(=O)c2c(-c3ccccc3)noc2C)cc1`, the Potency is reported as inconclusive [inhibitor, partial curve].
In the case of `CC(C)OC(=O)N(C)C[C@@H]1OCc2cnnn2CCCC(=O)N([C@H](C)CO)C[C@H]1C`, the “activity change, negative = growth inhibition” value is reported as inactive: 3.37%.
For `COc1ccc2[nH]c(=O)c(CN(C(=O)c3cccc(Cl)c3)c3cccc(C)c3)cc2c1`, the Potency was active: 16.4 µM.
For `COc1ccc(-n2nnc3c(=O)n(CC(=O)OCc4ccccc4)cnc32)cc1`, the Potency was inconclusive [inhibitor, single point].
In the case of `COc1cccc(CNC(=O)CCCCCn2c(=O)[nH]c3cc(OC)c(OC)cc3c2=O)c1`, the Potency is reported as inconclusive [inhibitor, partial curve].
In the case of `CC(Oc1ccccc1)C(=O)N1CCc2ccccc2C1` (configuration not stated), the Potency is reported as inconclusive [inhibitor, single point].
In the case of `CC(=O)c1cccc(Nc2ncnc3ccc(Br)cc23)c1`, the Potency is reported as active: 16.4 µM.
In the case of `Cc1ccccc1NC(=S)Nc1ccccn1`, the Potency is reported as inconclusive [inhibitor, single point].
In the case of `CCN1C(=O)c2ccccc2S(=O)c2ccc(C(=O)N3CCN(c4ccccc4OC)CC3)cc21` (configuration not stated), the Potency is reported as inconclusive [inhibitor, single point].
In the case of `COc1cc(SC)ccc1C(=O)NCCNC(=O)c1nonc1N`, the “activity change, negative = growth inhibition” value is reported as inactive: -18.9%.
For `CC1(C)CC(=O)C2=C(C1)OC(N)=C(C#N)C2c1ccc[nH]1` (configuration not stated), the Potency was inconclusive [inhibitor, partial curve].
With `CC1=CC(=NOC(=O)c2cccc([N+](=O)[O-])c2)C=C(C)C1=O` the Potency was active: 18.4 µM.
For `CCC1(c2ccc(F)cc2)NC(=O)N(CC(=O)c2cc(C)n(C3CC3)c2C)C1=O` (configuration not stated), the Potency was inconclusive [inhibitor, single point].
